Reference: article PMC11142307
Results are given in words; binding and its absence hold for the method and conditions named. In cells and extracts the contact can be indirect. Some entries that bind do so weakly or less than the wild type.

Experiments:
[1] = target: T1, Mms22 (budding yeast (endogenous locus, W303 derivative)) (UniProt Q06164); experiment: co-IP; Supplementary Fig. 1a; the text does not name the method of this panel, co-immunoprecipitation from yeast whole-cell extract is the only binding method in the methods
T1 sequence: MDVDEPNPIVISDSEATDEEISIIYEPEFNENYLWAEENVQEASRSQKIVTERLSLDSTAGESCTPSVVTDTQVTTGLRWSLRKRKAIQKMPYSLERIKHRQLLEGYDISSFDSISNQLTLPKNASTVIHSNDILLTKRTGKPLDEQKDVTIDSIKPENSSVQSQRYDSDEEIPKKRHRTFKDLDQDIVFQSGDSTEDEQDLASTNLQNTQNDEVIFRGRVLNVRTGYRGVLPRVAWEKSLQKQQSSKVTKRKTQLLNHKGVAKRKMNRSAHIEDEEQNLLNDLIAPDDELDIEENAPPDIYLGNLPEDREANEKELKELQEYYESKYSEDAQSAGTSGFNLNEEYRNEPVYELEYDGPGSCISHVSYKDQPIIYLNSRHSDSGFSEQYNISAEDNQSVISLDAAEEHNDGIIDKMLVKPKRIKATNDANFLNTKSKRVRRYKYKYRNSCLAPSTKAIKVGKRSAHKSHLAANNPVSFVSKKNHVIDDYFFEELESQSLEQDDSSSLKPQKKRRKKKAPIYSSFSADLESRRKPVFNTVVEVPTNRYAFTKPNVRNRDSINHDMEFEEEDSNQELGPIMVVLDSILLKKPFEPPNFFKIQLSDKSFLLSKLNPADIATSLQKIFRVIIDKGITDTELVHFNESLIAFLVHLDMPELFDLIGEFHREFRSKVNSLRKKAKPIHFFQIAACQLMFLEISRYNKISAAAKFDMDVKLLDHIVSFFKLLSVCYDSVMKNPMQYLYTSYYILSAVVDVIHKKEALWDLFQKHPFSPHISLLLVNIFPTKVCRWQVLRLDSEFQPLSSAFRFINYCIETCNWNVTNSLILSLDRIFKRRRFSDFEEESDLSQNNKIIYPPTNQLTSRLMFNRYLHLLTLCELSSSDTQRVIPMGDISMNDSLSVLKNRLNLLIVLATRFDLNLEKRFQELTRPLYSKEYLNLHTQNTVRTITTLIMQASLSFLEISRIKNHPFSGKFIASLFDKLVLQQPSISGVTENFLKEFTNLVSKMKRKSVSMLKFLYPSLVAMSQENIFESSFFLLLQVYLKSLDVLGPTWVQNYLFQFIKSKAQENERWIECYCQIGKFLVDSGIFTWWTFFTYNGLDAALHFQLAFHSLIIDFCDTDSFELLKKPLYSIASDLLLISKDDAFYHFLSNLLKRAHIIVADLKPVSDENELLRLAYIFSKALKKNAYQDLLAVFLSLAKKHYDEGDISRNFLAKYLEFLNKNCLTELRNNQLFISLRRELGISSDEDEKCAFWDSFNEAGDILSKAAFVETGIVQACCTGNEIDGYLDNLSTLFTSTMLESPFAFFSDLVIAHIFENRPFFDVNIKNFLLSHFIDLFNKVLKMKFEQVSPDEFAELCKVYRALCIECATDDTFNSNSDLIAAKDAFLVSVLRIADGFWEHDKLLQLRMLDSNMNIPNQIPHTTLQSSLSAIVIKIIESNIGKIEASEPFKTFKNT

[2] = target: T2, Mms22 with alanine substitution of D13 and Y33 in the Rtt107-interaction-motif (mms22^RIM) (budding yeast (endogenous locus, W303 derivative)) (UniProt Q06164); experiment: as above
T2 sequence: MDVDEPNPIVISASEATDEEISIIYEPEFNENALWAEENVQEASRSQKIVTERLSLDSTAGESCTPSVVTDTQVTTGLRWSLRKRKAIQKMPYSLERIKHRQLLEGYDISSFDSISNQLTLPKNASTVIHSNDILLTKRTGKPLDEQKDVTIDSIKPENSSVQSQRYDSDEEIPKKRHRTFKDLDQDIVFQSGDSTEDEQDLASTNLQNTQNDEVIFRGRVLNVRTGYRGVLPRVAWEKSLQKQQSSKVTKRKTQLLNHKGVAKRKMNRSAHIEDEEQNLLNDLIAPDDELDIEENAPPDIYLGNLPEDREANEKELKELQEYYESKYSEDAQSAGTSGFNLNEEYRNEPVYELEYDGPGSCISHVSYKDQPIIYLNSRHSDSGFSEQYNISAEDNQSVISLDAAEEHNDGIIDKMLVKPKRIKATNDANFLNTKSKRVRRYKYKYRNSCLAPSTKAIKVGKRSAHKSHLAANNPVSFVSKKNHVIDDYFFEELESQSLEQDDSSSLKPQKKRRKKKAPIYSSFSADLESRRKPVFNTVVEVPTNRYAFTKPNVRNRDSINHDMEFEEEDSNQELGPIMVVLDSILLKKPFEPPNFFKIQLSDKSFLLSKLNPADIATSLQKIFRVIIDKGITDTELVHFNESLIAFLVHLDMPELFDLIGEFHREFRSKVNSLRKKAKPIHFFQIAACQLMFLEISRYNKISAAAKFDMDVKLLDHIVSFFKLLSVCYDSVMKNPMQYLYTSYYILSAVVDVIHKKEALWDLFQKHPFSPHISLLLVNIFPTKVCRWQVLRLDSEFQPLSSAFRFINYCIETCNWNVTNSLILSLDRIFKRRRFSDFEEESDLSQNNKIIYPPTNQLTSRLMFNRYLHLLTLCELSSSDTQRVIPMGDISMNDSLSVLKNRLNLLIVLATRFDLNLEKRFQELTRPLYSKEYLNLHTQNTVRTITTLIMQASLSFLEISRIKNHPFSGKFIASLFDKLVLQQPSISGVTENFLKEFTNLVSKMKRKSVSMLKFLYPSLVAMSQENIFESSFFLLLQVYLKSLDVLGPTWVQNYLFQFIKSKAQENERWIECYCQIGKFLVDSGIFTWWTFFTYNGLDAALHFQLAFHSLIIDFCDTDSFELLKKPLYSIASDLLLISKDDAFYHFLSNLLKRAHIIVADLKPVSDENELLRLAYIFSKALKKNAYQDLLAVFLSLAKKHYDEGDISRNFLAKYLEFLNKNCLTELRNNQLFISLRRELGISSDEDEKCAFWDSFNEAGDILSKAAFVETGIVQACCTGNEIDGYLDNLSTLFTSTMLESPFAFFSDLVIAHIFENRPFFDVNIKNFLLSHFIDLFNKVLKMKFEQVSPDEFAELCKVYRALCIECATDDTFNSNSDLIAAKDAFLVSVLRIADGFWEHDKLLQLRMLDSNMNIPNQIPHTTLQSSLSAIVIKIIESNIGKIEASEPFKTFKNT

- binding [1]: binds
- binding [2]: binds
B1: Mms1 (protein, UniProt Q06211 1-1407)
chain: MLGLRTHGLDRYEHYIRRPSDFGKLELQDWLNHKSFRVSPNLLIDSSTTREWNEPELFYQNTEDETWVRPCVGPKLEPSMMMLRYHDSNIGQMPQFCYPISSPINFKPVLKYILQERSELSDGFPQKYNTLIGSLFDIDKNPETLDDSDIEALDDIEMSSDSGNVKEPKIELQALEEIQQKHFSLIVSNNGIFQTGSTSITYIQSGISGSIAIKPNNVAILILLTQPSGHLLSILPLDDGKETYLLQYWNLGQKGQWNIIKHQNEKQFVLIHKELGICKFFEFHLPFTFQLVNNLTLTDSVIMNGSFFPTNYTDLDPYFIIFITAIRYERIVYFVIEWNNNEIKKKEVYQLTVFDGEKTNMTIPIGLNACLVETPLKFSLVSANQIMSGETEFHSFQLKALKGIKSFFPAPLLLLKLQELHPHTFKKFQYCTIISSSTGNICFCVTERSTIVNGNLKFYELTRFKGLKSISPLPSNPINLDSRSSSYVLVVISFSRTLELTLSLEDLRCLDKKDVIKPLKNITFKHTIDSSTEENSQILAFTSSKFYNTHTGSNINDTRNSQVWLTSPNAITQPCIDYKLRKTHQLIHLKQFQIFRHLRIWKCKNLDIALLQRLGINQSNTESSLIFATDAVSNNRIFLLDLTMTTTIDNDDPVQGLINIEDLLCDTENETILLNFTKNNLIQVTRDTIYIDPIGGDKELRKISPGWEFENVTYNDGILIVWNAGLGCVSYIENIDAVDESGALVSNLSSSKGMSKFFKQLGTVTSVNFQIKESTDDPTKYDIWILLPDCVIRTPFSDWISDSLDFSDVYILSVQQALINGPYFCSLDYESYFEVHTLQNNCFKKGSRCTSRVNFQGKDIKFRSFGVNQCLAFSAFEIFVINLTPIHDSRELDFYKLKLPHLGNNNSILEVCPDIENNQLFILYSDGLRILELSYLTSNNGNFLLKSTRSKNKKFLYLDKINRMLVLNQDLREWECIRLSDGKAVGLDSQLLKDDSEEILEIKELPIATEDNPLEKKTVLLISFTSSLKLVLLTAAKNKISNQIIDSYKLDNSRLLNHLVITPRGEIFFLDYKVMGTDNEMSFNKLKVTKHCIDQEERNNTTLRLTLETRFTFKSWSTVKTFTVVGDNIIATTNMGEKLYLIKDFSSSSDESRRVYPLEMYPDSKVQKIIPLNECCFVVAAYCGNRNDLDSRLIFYSLPTIKVGLNNETGSLPDEYGNGRVDDIFEVDFPEGFQFGTMALYDVLHGERHVNRYSEGIRSENDEAEVALRQRRNLLLFWRNHSSTPKPSLRRAATIVYEDHVSSRYFEDISSILGSTAMRTKRLSPYNAVALDKPIQDISYDPAVQTLYVLMADQTIHKFGKDRLPCQDEYEPRWNSGYLVSRRSIVKSDLICEVGLWNLSDNCKNTV
